# Some of the results follow.
# T1: UNK ZnF1-3 (human, UniProt Q9C0B0 31-174)
# T1 sequence: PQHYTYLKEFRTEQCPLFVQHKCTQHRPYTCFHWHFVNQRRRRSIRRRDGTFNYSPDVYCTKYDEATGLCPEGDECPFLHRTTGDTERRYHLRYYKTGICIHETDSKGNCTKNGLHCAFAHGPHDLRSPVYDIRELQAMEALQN
# B1: chr21:33032072:33032073:+_ENSG00000142168_ENST00000270142|hu_hu|motif|central (ssRNA)
# RNA: GGGAGUUCUACAGUCCGACGAUCUGCACUGGGCCGUCGCCCUUCAGCACGCACACGGCCUUCGUCGCCAUAACUCGCGGGGCCACGCCGAGGUCCUGGUUCCGAGGACUGCAACGGAAACCCCAGACGCUGCAGGAGACUACGCAACAGAGGAUUGAGCAUCA
# B2: 49195773_49196266_1005_3pUTR_ENSG00000196396_ENST00000371621|human|control|control (ssRNA)
# RNA: GGGAGUUCUACAGUCCGACGAUCCUCGUGGGAAAGCUCCUUCCACUGAUCCUGCACGGAAGAGUCCCCCAUGAUGAAUUUGGCACCUUCGAUCACAGCCAGGUAGGAGAAGCGCAGCUGGUCGGCUGUCUGGAUCAGCCCCAUCAACAGAGGAUUGAGCAUCA
# B3: chr5:80785125:80785126:-_ENSG00000145687_ENST00000509013|hu_hu|FALSE|FALSE (ssRNA)
# RNA: GGGAGUUCUACAGUCCGACGAUCUGGCUGACUUCCUGGGACACCUCCAAGUGCCUGAAAGAACCCUGGUGGUACAGGACCUACUGGCAUGCCAUCUCCUGGGGGAAUGUUUCCUAGCACUGGACUGGGAGCUGCUGCAGCACUCAACAGAGGAUUGAGCAUCA
# B4: chr14:59854306:59854307:+_ENSMUSG00000035469_ENSMUST00000043227|mus_mus|motif|central (ssRNA)
# RNA: GGGAGUUCUACAGUCCGACGAUCUAAGAAAUGGACUCACAAGAAGCAAAUAUCCUUCAUAUAUUCCUACAGAGCACUGUCGGUGGUGUGGGGCUUUACCUGCAGAUCACCGCACCCACAGUGCCCCAGAGCUCUCACACCUAGCAACAGAGGAUUGAGCAUCA
# B5: 13520199_13520319_5787_CDS_ENSMUSG00000020576_ENSMUST00000042953|mouse|control|control (ssRNA)
# RNA: GGGAGUUCUACAGUCCGACGAUCAGCCAAGGCAUCUGGAUAGGUGGCCUGAGAACCACGACCUUCUUGGGGGUCCUCUUCUGAAUUUCUUUUCCUUGGCUUCUCUAUGAAAUGCUUGAUUGUCUUAAUGGCCUUUCUGGUCAUCAACAGAGGAUUGAGCAUCA
# B6: chrX:71099370:71099371:-_ENSMUSG00000031391_ENSMUST00000102871|mus_hu|motif|central (ssRNA)
# RNA: GGGAGUUCUACAGUCCGACGAUCUUUAUUUUUCCUGGGAUGGGUUCAUCAAAGCUAAUUGCUAUCAAUCCUAGAAACCACCGGGGGACUCAGACAUCUGCCUACACACUAGUGGCGUAAAGGGAAGGACAGGGGUACAAACUUCAACAGAGGAUUGAGCAUCA
# B7: chr11:86935578:86935579:+_ENSMUSG00000020492_ENSMUST00000020794|mus_hu|FALSE|FALSE (ssRNA)
# RNA: GGGAGUUCUACAGUCCGACGAUCUAAUCUCUCUCAUGAAAGAUAUCAUUAUCCAGUCAUUGAAGCCAAACCCCCUUCACCAGCCCCCAAUCUCUAGACAUCAAGGGUUAACAAGACAUCUUCCUAAAUUUCUCCGGAAUUAAGCAACAGAGGAUUGAGCAUCA
# B8: chr4:82449818:82449819:-_ENSMUSG00000028403_ENSMUST00000030110|mus_hu|motif|central (ssRNA)
# RNA: GGGAGUUCUACAGUCCGACGAUCUACAUUUCUAUGUUUUGUAAUAAAUUGGUAAUUUCAAAGUAACAGCUUUUCCAAUUCGGAGGAAUUACUCUGCCAAAAUAAGGUUUAAAAUAAAAUACAUAAAAUGGCUUAGUUUAUCCUCAACAGAGGAUUGAGCAUCA
# B9: chr2:198351390:198351391:-_ENSG00000144381_ENST00000345042|hu_hu|hu_hu_hu_mus_False|38_88 (ssRNA)
# RNA: GGGAGUUCUACAGUCCGACGAUCUCAUUCCCACCCUCCACAGAAAGGCUGCUUAACAACUCUCAUGUGGUGACACAGCGCUACAGUCCUGAUGCUCACAGAAUAGUAGAGAUGCCUCAGUGAUUUAAGUUGAAAGCAGGACACCAACAGAGGAUUGAGCAUCA
# B10: 112498940_112499737_1378_CDS_ENSMUSG00000021277_ENSMUST00000021706|mouse|control|control (ssRNA)
# RNA: GGGAGUUCUACAGUCCGACGAUCCAUCUGGUCAUGCCGGCUCAGCUGGGACUCCAGCAAGCCUGUGUUGCGAGCCGCCUGCCCCGCACUUUUGUCUACGCUCUCCAGCUCAGUCACUCGGUUCUGGAGGGACUCCACACUGCUCAACAGAGGAUUGAGCAUCA
# B11: chr2:66073698:66073699:-_ENSMUSG00000034848_ENSMUST00000102718|mus_mus|FALSE|FALSE (ssRNA)
# RNA: GGGAGUUCUACAGUCCGACGAUCCUGCUGGAAUUCACUGAAGAACUCCAACUGCUGGUCUGCAUCUUGCAACUGCCCCUCUAUUAACUGACAUCGGAUAAGUCCGGUGACAGCAGAGAUGUUGCUCUCAUUCAGCGUCAUGGCCAACAGAGGAUUGAGCAUCA
# B12: 139257338_139257458_3966_3pUTR_ENSG00000064393_ENST00000406875|human|control|control (ssRNA)
# RNA: GGGAGUUCUACAGUCCGACGAUCGGUUUUUUGUUAUUGACUUUUUUUUUUUCCUUUUUCUUUUUUAAAAUAAAAACCAUAGAUUUCCCACCCUCUUUAAUCCCUUCCUUUUAAAAAUGUUCUCUUCUCUGCUCUACGUCCUCCCAACAGAGGAUUGAGCAUCA
# B13: chr4:131761308:131761309:-_ENSMUSG00000040025_ENSMUST00000102570|mus_hu|FALSE|FALSE (ssRNA)
# RNA: GGGAGUUCUACAGUCCGACGAUCAGCUGACUGUCCAUCAAUCAUGGCUCCACCUAAGGAGCUAGGUGCAUAAGCAUAAUUGCUACUAUAUCCAGAGCUCUGAGUAGACUGUCCCUGAGAACUGUUAUUUCCCCAUGCUGAGAACAACAGAGGAUUGAGCAUCA
# B14: 40938855_40940850_1698_CDS_ENSMUSG00000028423_ENSMUST00000098143|mouse|control|control (ssRNA)
# RNA: GGGAGUUCUACAGUCCGACGAUCAGACUUUCCCACAUCGGUUCCACACAACACAUCUCGGGAGGUGCUGCCACAGUAGCACACCUGGUUCAGUAUGAUCCGACAAGGCUGGCAUUGACCCCCAUGGCACAGCUCAGCACAGUGCAACAGAGGAUUGAGCAUCA
# Molecular target: T1, UNK ZnF1-3
# Test: nsRBNS (natural sequence RNA bind-n-seq); RBNS binding buffer (assumed for nsRBNS): 25 mM Tris pH 7.5, 150 mM KCl, 3 mM MgCl2, 0.01% Triton X-100, 500 ug/ml BSA, 20 U/ml SUPERase-In, 4 C; UNK is unkempt and MSI1 is Musashi-1; names of the RNAs are library labels; protein concentration not given here; high values mean tight binding
row,Binder,binding signal [enrichment R]
1,B1,0.62
2,B2,1.18
3,B3,0.936
4,B4,0.65
5,B5,0.402
6,B6,0.933
7,B7,1.21
8,B8,0.745
9,B9,1.26
10,B10,0.8
11,B11,0.875
12,B12,1.43
13,B13,1.13
14,B14,1.05

# Source: PMC12136788
